Measured values from publication PMC6919601, “Identification of Plasmodium dipeptidyl aminopeptidase allosteric inhibitors by high throughput screening” (PLoS ONE, 2019).
Values joined by “and” are separate entries in the source; they are usually repeats but may differ in a detail not shown here. Identical values can stand only once. In all, about 110,000 compounds went through this assay and about 230 (0.21%) showed an effect of 50% or more. Some of the results follow.

Target: DPAP1 (Plasmodium falciparum, UniProt Q8IIJ9)
Experiment: primary screen, percent inhibition; read by cleavage of a fluorogenic dipeptide substrate; higher = more effect of the substance
Design: species or system P. falciparum D10 trophozoite lysates; single well
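Further: 30 min substrate incubation versus DMSO and 10 µM JCP410 controls.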

DPAP1, sequence (Q8IIJ9 whole entry, looked up): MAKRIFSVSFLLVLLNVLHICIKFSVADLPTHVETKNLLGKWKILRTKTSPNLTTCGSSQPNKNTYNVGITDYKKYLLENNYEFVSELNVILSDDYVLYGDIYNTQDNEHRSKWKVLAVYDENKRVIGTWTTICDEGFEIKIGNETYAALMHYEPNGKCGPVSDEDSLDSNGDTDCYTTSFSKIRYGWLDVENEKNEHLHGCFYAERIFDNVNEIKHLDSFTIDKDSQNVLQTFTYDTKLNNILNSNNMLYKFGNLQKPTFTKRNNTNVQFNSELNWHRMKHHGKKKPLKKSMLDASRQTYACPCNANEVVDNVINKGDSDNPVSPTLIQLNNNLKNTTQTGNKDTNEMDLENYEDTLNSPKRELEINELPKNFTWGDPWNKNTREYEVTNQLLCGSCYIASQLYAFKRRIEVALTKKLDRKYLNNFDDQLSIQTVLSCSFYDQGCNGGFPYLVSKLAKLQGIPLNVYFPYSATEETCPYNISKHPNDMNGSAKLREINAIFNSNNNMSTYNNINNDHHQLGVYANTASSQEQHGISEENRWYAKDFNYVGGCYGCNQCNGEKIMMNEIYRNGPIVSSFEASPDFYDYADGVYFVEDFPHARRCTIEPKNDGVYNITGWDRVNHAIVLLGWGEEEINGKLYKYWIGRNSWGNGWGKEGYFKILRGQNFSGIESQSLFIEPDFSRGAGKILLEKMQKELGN

SMILES | % Inhibition @ 10 uM
Cc1cccc(C2=Nc3c(c(=O)n(C)c(=O)n3C)C(C(F)(F)F)(C(F)(F)F)N2)c1 | 0.032%
O=C(NC(C(F)(F)F)C(F)(F)F)N(Cc1ccccc1)Cc1ccccc1 | 0.78%
C=CCOc1cc(Br)c(/C=C(/C#N)C(=O)NCc2ccccc2)cc1OC | -1.84%
O=[N+]([O-])c1ccc(CN2CCCC(O)C2)cc1 (centres unmarked) | 1.63%
CCCNC1=N/C(=C\c2ccccc2)C(=O)N1c1cccc(Cl)c1 | -4.02%
COCCCn1c(=O)c2sccc2n2c(CCCC(=O)NCc3ccccc3Cl)nnc12 | -5.05%
O=C(CSc1nc(O)c2cnn(-c3ccc(F)cc3)c2n1)NCc1ccco1 | -5.57%
CCN(CC)CCNc1nc2c(c(=O)n(C)c(=O)n2C)n1Cc1ccc(C)cc1 | 0.161%
O=C(CSc1nc[nH]n1)Nc1ncc(Br)cc1Br | -1.68%
CCCOCc1cc(CN2CCN(C)CC2)c(O)c2ncccc12 | -2.28%
CCN1CCN(Cc2cccnc2)CC1 | -0.192%
CCOc1ccc(/C=C/c2nc(C#N)c(NCc3ccco3)o2)cc1 | -8.25%
O=C(CCc1ccccc1)Nc1nnc(S(=O)(=O)N2CCOCC2)s1 | -1.72%
Cc1ccc(C)c(Cn2c(CN3CCCC(C)C3)nc3c2c(=O)n(C)c(=O)n3C)c1 (centres unmarked) | -2.29%
CCc1nn(CC(=O)NCC2CCCN2CC)c(=O)c2cc3sccc3n12 (centres unmarked) | 6.46%
COc1ccc(C2C(=O)N(CCc3ccccc3)CC(=O)N2Cc2ccc3c(c2)OCO3)cc1 (centres unmarked) | -0.519%
Cc1ccc(CCNC(=O)C2CCCN(S(=O)(=O)c3c(C)nn(C)c3C)C2)cc1 (centres unmarked) | -1.03%
CCn1c2ccccc2c2cc(CN3CCCC(O)C3)ccc21 (centres unmarked) | -0.828%
CCOC(=O)C1=C(C)N=C2SCCN2C1c1ccccc1 (centres unmarked) | 1.08% and -5.62%
C=CCN1C(=O)N/C(=C/c2cc(C)n(CC)c2C)C1=O | -2.37%
Cn1c(CCCO)nc2ccccc21 | 4.3%
COc1cccc(-c2cn3c(n2)sc2cc(C(=O)N4CCC(C(N)=O)CC4)ccc23)c1 | 29.2%
COc1ccc(C2CC(=O)C3=C(C2)NC(=O)CC3c2cccc(OC)c2OC)cc1 (centres unmarked) | 1.97%
CC1(NC(=O)N2CCOCC2)CCS(=O)(=O)C1 (centres unmarked) | 0.627%
CCn1c(SCC(=O)N2CCN(c3ccc(F)cc3)CC2)nc2ccccc2c1=O | -5.35%

SMILES | % Inhibition @ 10 uM
COc1ccc(CC(=O)Nc2ccc(S(=O)(=O)N3CCCCC3)cc2)cc1 | -2.98%
O=C(O)c1ccc2[nH]c(-c3cc4ccc(OCc5ccccc5)cc4oc3=O)nc2c1 | -5.22%
CCn1cc(C(=O)N2CCN(Cc3ccc4c(c3)OCO4)CC2)c(=O)c2ccc(C)nc21 | 0.718%
CCCSc1nc(O)c(C(C)CCC)c(=O)n1CC (centres unmarked) | 38.9%
COc1nc(NCCc2ccc(OC)c(OC)c2)nc(N2CCC(Cc3ccccc3)CC2)n1 | -1.43%
CC1CC(C)CN(C(=O)C2CCN(S(=O)(=O)c3ccc4nc(O)ccc4c3)CC2)C1 (centres unmarked) | 0.309%
O=C(NC(Cc1ccccc1)C(=O)Nc1ccc2ccccc2c1)c1ccccc1 (centres unmarked) | -1.77%
Cc1ccc(S(=O)(=O)N2C(=O)/C(=C3\SC(N)=NC3=O)c3ccccc32)cc1 | -4.97%
CCCCCN1COc2ccc3c(C)cc(=O)oc3c2C1 | -1.01%
CN1C2=C(C(=O)CC(C)(C)C2)C(c2cccs2)C2=C1CC(C)(C)CC2=O | -0.63%
COc1ccc(CN(C(=O)c2cc(OC)c(OC)c(OC)c2)C2CCS(=O)(=O)C2)cc1 (centres unmarked) | 0.561%
CC(=O)c1ccc(NC(=O)C(C)Oc2ccc(Cl)cc2Cl)cc1 (centres unmarked) | 2.13%
CCOC(=O)c1cc(-c2nnco2)c(C)nc1C | 1.03%
CC(C)c1ccc(-c2c(NCCN3CCCCC3C)c(=O)c2=O)cc1 (centres unmarked) | -5.92%
COC(=O)c1ccc2c(c1)C(C)(C)C(/C=C/c1cc(O)ccc1O)=[N+]2C | -3.41%
Cc1ccc(NC2=NC(=O)C(CC(=O)NCc3ccccc3)S2)cc1C (centres unmarked) | 3.86%
COc1ccc2nc(NC(=O)c3sc(C)nc3C)sc2c1 | -4.54%
Cc1ccc2c(cnn2C(=O)CCC(=O)NCCC(C)C)c1 | 6.89%
O=C1C2C3C=CC(C3)C2C(=O)N1Cc1ccc(Cl)cc1 (centres unmarked) | -5.88%
COc1ccccc1S(=O)(=O)Cc1ccc(C(=O)NCC2CCCO2)o1 (centres unmarked) | -3.32%
CCN1C(=O)C(C(=O)N(Cc2ccccc2)Cc2ccccc2)C2CC1(C)Oc1ccccc12 (centres unmarked) | 2.03%
CC1Cc2cc(C(=O)C3=C(O)C(=O)N(CCCN4CCOCC4)C3c3ccncc3)ccc2O1 (centres unmarked) | -8.23%
COc1cc(C2=N/C(=C\c3coc4ccccc4c3=O)C(=O)O2)cc(OC)c1OC | -2.41%
O=C1OC(c2ccc(Cl)cc2)=C/C1=C\c1ccco1 | -0.357%
O=C(Cn1cccc1C(=O)c1ccccc1)NCCC1=CCCCC1 | 2.76%

SMILES | % Inhibition @ 10 uM
CCOc1cc(C2NC(C(=O)O)CS2)ccc1OCc1ccccc1Cl (centres unmarked) | -5.11%
CC(C)c1ccc(/C=C/C(=O)NC(C)c2ccccc2)cc1 (centres unmarked) | 6.8%
NC(=O)c1cc(S(=O)(=O)N2CC=C(c3ccccc3)CC2)cs1 | -3.74%
COc1ccc(CN2CCN(Cc3ccc(F)cc3)CC2)c(OC)c1 | -0.999%
CCc1c(-c2ccccc2)n(C2CCCCC2)c2nc3c(c(=O)n(C)c(=O)n3C)n12 | -0.703%
O=C(Nc1ccccc1C(=O)O)c1cccc([N+](=O)[O-])c1 | 3.25%
COCCNC(=O)CCn1nc(-c2ccc(C)cc2)ccc1=O | 3.24%
CCC12CC3CC(O)(C1)CC(C(=O)O)(C3)C2 (centres unmarked) | 3.48%
O=C(CN1CCN(Cc2ccc3c(c2)OCO3)CC1)NCc1ccc(F)cc1 | 4.57%
CCc1ccc(/C=c2\sc3ncnn3c2=O)cc1 | 1.91%
COc1ccccc1C(=O)N(Cc1ccc(C(C)(C)C)cc1)Cc1ccco1 | 2.29%
COc1ccc(N(CC(=O)NCc2ccccc2C)S(=O)(=O)c2ccccc2)cc1Cl | 0.727%
Cc1ccc(S(=O)(=O)N(C)CC(=O)Nc2ncc(C(F)(F)F)cc2Cl)cc1 | -4.52%
COc1ccc(-c2csc(/C(C#N)=C/Nc3ccc(C(N)=O)cc3)n2)cc1OC | 2.08%
Cc1noc2ncnc(N3CCCC(C(=O)NCc4cccnc4)C3)c12 (centres unmarked) | -0.975%
COc1ccc(NC(=O)c2ccc(OC(F)F)c(OC)c2)cc1OC | 3.52%
Cc1ccc(C)c(S(=O)(=O)N2CCN(S(=O)(=O)c3cc(C)ccc3C)C(C)C2)c1 (centres unmarked) | -6.6%
COCc1cc(O)n2nc(C)c(-c3ccc(Cl)cc3)c2n1 | 1.72%
COc1ccc(NC(=O)Nc2ccc(SC(F)(F)F)cc2)cc1 | 3.06%
COc1ccc(S(N)(=O)=O)cc1C(=O)NC1CCN(C)CC1 | -5.45%
CC(C)C12CN3CN(C1)CC(C(C)C)(C3)C2=O | -0.807%
Cc1cn2cc(-c3ccc4ccccc4c3)nc2s1 | -2.2%
Cc1ccc(CN2CCN(c3cccc(C(F)(F)F)c3)CC2)c(C)c1 | -0.127%
CCOC(=O)N1CCC(NC(=O)C(NC(=O)C2CCC(C)CC2)C(C)CC)CC1 (centres unmarked) | -0.972%
Cc1ccc(NC(=O)Nc2cc(Cl)ccc2Cl)cc1 | 0.161%

SMILES | % Inhibition @ 10 uM
CC(NCc1ccccc1Cl)c1ccccc1 (centres unmarked) | 2.01%
CCN1C(=O)c2ccc(C(=O)Nc3cccc(C(=O)NC(C)(C)C)c3)cc2C1=O | -4.39%
O=C(CCc1ccccc1)Nc1ccc(S(=O)(=O)N2CCCCC2)cc1 | 0.408%
CN(C)CC(=O)c1ccc2cc[nH]c2c1 | -1.08%
O=C(Nc1c2c(nn1-c1ccc(Cl)cc1)CS(=O)(=O)C2)c1ccc2c(c1)OCO2 | 1.45%
Cc1nn(S(=O)(=O)c2ccc(Br)cc2)c(C)c1Sc1ccccc1 | -0.736%
Cc1ccc(N(Cc2ccc(C(=O)Nc3ccc(C(N)=O)cc3)cc2)S(C)(=O)=O)cc1C | 0.727%
Cc1nc(=O)c(-c2ccccc2)c(C)n1-c1ccccc1 | 2.22%
Cc1cccc(NC(=O)C(NS(=O)(=O)c2ccc3nc(C)sc3c2)C(C)C)n1 (centres unmarked) | -1.7%
O=C1C2C3c4ccccc4C(c4ccccc43)C2C(=O)N1c1ccc(Cl)cc1 (centres unmarked) | -2.47%
CCCN1C(=O)c2n[nH]c(C)c2C1c1cccnc1 (centres unmarked) | -4.67%
NC(=O)c1ccc(NC(=O)C2CCCCC2C(=O)O)cc1 (centres unmarked) | -5.15%
CC(C)(C)c1cc(C(=O)Nc2cccc3ccccc23)cc(C(C)(C)C)c1 | -5.33%
CN1CCN(S(=O)(=O)c2ccc(C(=O)O)cc2)CC1 | 1.7%
COc1ccc(C(=O)Nc2cccc3c2CCCC3)c(OC)c1 | 17.1%
Oc1c(/C=N/c2cccc(Cl)c2)sc2ccccc12 | 1.37%
Cc1ccc(NS(=O)(=O)c2cc(C(=O)O)c(Cl)cc2Cl)cc1C | -6.68%
Cc1ccc(OCC(=O)N2CCOCC2)c(Br)c1 | 6.83%
Cc1cc(NC(=O)c2cc(-c3ccc(O)cc3)on2)n(-c2ccccc2)n1 | 3.89%
CSc1nc2ccccc2n1C1CCCCC1 | -1.55%
CCOc1cc(CNCCSc2nnnn2C)cc(Br)c1OCC | -1.71%
Cc1ccc(CN(C(=O)C(C)Oc2ccc(C(C)C)cc2)C2CCS(=O)(=O)C2)o1 (centres unmarked) | -2.85%
COc1ccc(C(=O)/C=C/c2ccc(C)cc2)c(OC)c1 | 2.54%
